# Measured values: the supplement of paper PMC9990464
# Counter-ions that a name gives are not always drawn. ± gives the standard deviation of the averaged measurements. Some of the results follow. Repeats are few or missing, and single values can be far off.
# Legend:
# Experiment in all cases: area under viability curve (10 nM-1 µM), viability relative to solvent or trametinib-only control (AUC (arbitrary, % viability x concentration range)); higher = less growth inhibition (more viable cells)
# [1] = tested on: KCNR; details: 72 h compound exposure (96 h after seeding) h
# Protocol: (§1)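 Four neuroblastoma cell lines (KCNR, SKNBE, SJNB8, SKNAS) were seeded in 384-well plates. At 24 h, 1 µM trametinib or DMSO was added, followed by library compounds at 10 nM, 100 nM and 1 µM. Viability was read by MTT at 96 h and normalised to solvent-treated cells (DMSO arm) or to trametinib-only cells (trametinib arm). The area under the 3-point viability curve was computed in GraphPad Prism; units are as given (approx. 100000 = no effect).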
# [2] = tested on: SJNB8; details: 72 h compound exposure (96 h after seeding) h; trametinib co-treatment 0 µM
# Protocol: as §1
# [3] = tested on: SKNAS; details: 72 h compound exposure (96 h after seeding) h
# Protocol: as §1
# [4] = tested on: SKNBE; details: 72 h compound exposure (96 h after seeding) h
# Protocol: as §1
# 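Note: KCNR is a neuroblastoma cell line carrying an ALK mutation, in this DMSO arm without trametinib, viability was normalised to solvent-treated cells.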
Structure (SMILES),area under viability curve ([1]; trametinib co-treatment 0 µM),area under viability curve ([1]; trametinib co-treatment 1 µM),area under viability curve [2],area under viability curve ([3]; trametinib co-treatment 0 µM),area under viability curve ([3]; trametinib co-treatment 1 µM),area under viability curve ([4]; trametinib co-treatment 0 µM),area under viability curve ([4]; trametinib co-treatment 1 µM)
Nc1nccc(Oc2ccc(NC(=O)c3c[nH]cc(-c4ccc(F)cc4)c3=O)cc2F)c1Cl,104000,109000,95900,115000,101000,92500,99100
CCc1c2c(nc3ccc(OC(=O)N4CCC(N5CCCCC5)CC4)cc13)-c1cc3c(c(=O)n1C2)COC(=O)[C@]3(O)CC [Irinotecan HCl (trihydrate)],81700,62300,85400,79600,104000,97700,93600
COc1cc([C@@H]2c3cc4c(cc3[C@@H](O[C@@H]3O[C@@H]5CO[C@@H](c6cccs6)O[C@H]5[C@H](O)[C@H]3O)[C@H]3COC(=O)[C@H]23)OCO4)cc(OC)c1O [Teniposide],14000,6620,70700,57700,59900,65700,23700
Cc1ccc(NC(=O)c2ccc(CN3CCN(C)CC3)cc2)cc1Nc1nccc(-c2cccnc2)n1 [Imatinib mesylate],105000,101000,93900,118000,93200,102000,101000
C#Cc1cccc(Nc2ncnc3cc(OCCOC)c(OCCOC)cc23)c1 [Erlotinib mesylate],100000,101000,83600,104000,94900,99000,104000
COc1cc2nc(N3CCCN(C)CC3)nc(NC3CCN(Cc4ccccc4)CC3)c2cc1OC,93900,93500,77700,88200,105000,79800,94300
Cc1cccc(Oc2nc3c(C)cccn3c(=O)c2C=C(C#N)c2nc3ccccc3s2)c1,99100,99300,91300,90100,103000,88200,96900
Cc1nc(Nc2ncc(C(=O)Nc3c(C)cccc3Cl)s2)cc(N2CCN(CCO)CC2)n1 [Dasatinib],80900,79800,60600,45900,55300,107000,107000
Nc1nc(OCc2cc(Br)cs2)c2[nH]cnc2n1 [Lomeguatrib],96000,91500,86800,96000,96400,81400,87100
CN1CCN(c2ccc3nc(-c4c(N)c5c(F)cccc5[nH]c4=O)[nH]c3c2)CC1 [Dovitinib lactate],95400,98700,87700,110000,102000,100000,105000
CC(=O)O[C@H]1C(=O)[C@@]2(C)[C@H]([C@H](OC(=O)c3ccccc3)[C@]3(O)C[C@H](OC(=O)[C@H](O)[C@@H](NC(=O)c4ccccc4)c4ccccc4)C(C)=C1C3(C)C)[C@]1(OC(C)=O)CO[C@@H]1C[C@@H]2O [Paclitaxel],14100,20600,30200,28600,21800,32400,10400
COc1cc2c(Oc3ccc4[nH]c(C)cc4c3F)ncnc2cc1OCCCN1CCCC1 [Cediranib],92800,96700,65100,102000,96000,69900,81400
O=NN(CCCl)C(=O)NC1CCCCC1 [Lomustine],102000,105000,104000,97600,103000,115000,110000
CS(=O)(=O)CCNCc1ccc(-c2ccc3ncnc(Nc4ccc(OCc5cccc(F)c5)c(Cl)c4)c3c2)o1 [Lapatinib tosylate],110000,103000,69400,76700,103000,86100,96700
CC(=O)Nc1cccc(-n2c(=O)n(C3CC3)c(=O)c3c(Nc4ccc(I)cc4F)n(C)c(=O)c(C)c32)c1 [Trametinib],84500 ± 18000,103000 ± 1800,26600 ± 7600,49900 ± 7300,101000 ± 6800,71600 ± 3600,107000 ± 5900
C[C@]12CC[C@H](O)CC1=CC[C@@H]1[C@@H]2CC[C@]2(C)C(n3cnc4ccccc43)=CC[C@@H]12 [Galeterone],106000,107000,102000,126000,96300,108000,102000
COc1cccc2c1C(=O)c1c(O)c3c(c(O)c1C2=O)C[C@@](O)(C(=O)CO)C[C@@H]3O[C@H]1C[C@H](N)[C@H](O)[C@H](C)O1 [Doxorubicin hydrochloride],9520,5510,68900,53100,36000,54800,14200
CN1CC[C@H](c2c(O)cc(O)c3c(=O)cc(-c4ccccc4Cl)oc23)[C@H](O)C1 [Flavopiridol],53900,49400,38300,39500,58100,31900,37100
CC(C)C[C@H](NC(=O)[C@@H](COC(C)(C)C)NC(=O)[C@H](Cc1ccc(O)cc1)NC(=O)[C@H](CO)NC(=O)[C@H](Cc1c[nH]c2ccccc12)NC(=O)[C@H](Cc1cnc[nH]1)NC(=O)[C@@H]1CCC(=O)N1)C(=O)N[C@@H](CCCNC(=N)N)C(=O)N1CCC[C@H]1C(=O)NNC(N)=O [Goserelin acetate],96700,102000,101000,97200,96500,99200,92900
CCOc1cc2ncc(C#N)c(Nc3ccc(OCc4ccccn4)c(Cl)c3)c2cc1NC(=O)/C=C/CN(C)C [Neratinib],94900,87500,59700,75500,98800,69000,75600

Structure (SMILES),area under viability curve ([1]; trametinib co-treatment 0 µM),area under viability curve ([1]; trametinib co-treatment 1 µM),area under viability curve [2],area under viability curve ([3]; trametinib co-treatment 0 µM),area under viability curve ([3]; trametinib co-treatment 1 µM),area under viability curve ([4]; trametinib co-treatment 0 µM),area under viability curve ([4]; trametinib co-treatment 1 µM)
CC(C)(C#N)c1cc(Cn2cncn2)cc(C(C)(C)C#N)c1 [Anastrozole],98500,99800,75600,72700,95300,92700,95800
Cc1ccc(NC(=O)c2ccc(CN3CCN(C)CC3)cc2)cc1Nc1nccc(-c2cccnc2)n1 [Imatinib base],90700,92000,96600,118000,104000,92400,90200
C[C@@H](O[C@H]1OCCN(Cc2n[nH]c(=O)[nH]2)[C@H]1c1ccc(F)cc1)c1cc(C(F)(F)F)cc(C(F)(F)F)c1 [Aprepitant],101000,106000,82500,90600,97300,107000,117000
Cc1cn([C@H]2C[C@H](O)[C@@H](CO)O2)c(=O)nc1N [2'-Deoxy-5-methylcytidine],105000,98400,104000,109000,103000,97400,97300
CCNC(=O)[C@@H]1CCCN1C(=O)[C@H](CCCN=C(N)N)NC(=O)[C@H](CC(C)C)NC(=O)[C@@H](C)NC(=O)[C@H](Cc1ccc(O)cc1)NC(=O)[C@H](CO)NC(=O)[C@H](Cc1c[nH]c2ccccc12)NC(=O)[C@H](Cc1cnc[nH]1)NC(=O)[C@@H]1CCC(=O)N1 [Alarelin acetate],100000,99800,94900,103000,101000,106000,97800
NC(=O)C1CCCc2c1[nH]c1ccc(Cl)cc21 (stereo not given) [Selisistat],104000,104000,89300,117000,98200,97400,94000
Cc1ccc(NC(=O)c2ccc(CN3CCN(C)CC3)cc2)cc1Nc1nc(-c2cccnc2)cs1 [Masitinib],104000,106000,79000,99000,108000,106000,118000
C=C(C)[C@@H](CC=C(C)C)C[C@@]12C[C@@H](CC=C(C)C)C(C)(C)[C@@](CC=C(C)C)(C(=O)C(C(=O)c3ccc(O)c(O)c3)=C1O)C2=O [Garcinol],103000,105000,77000,94400,98200,92600,101000
CCN1CCN(c2ccc(Nc3cc(N(C)C(=O)Nc4c(Cl)c(OC)cc(OC)c4Cl)ncn3)cc2)CC1 [Infigratinib],102000,102000,70800,107000,99000,101000,102000
Cc1cc(Nc2ncc(Cl)c(Nc3ccccc3S(=O)(=O)C(C)C)n2)c(OC(C)C)cc1C1CCNCC1 [Ceritinib],63500,59500,80200,86300,92700,99200,92200
O=c1[nH]c(=O)n([C@H]2C[C@H](O)[C@@H](CO)O2)cc1F [2’-Deoxy-5-fluorouridine],53900,38700,54300,62600,80100,37900,17300
COc1nc(N)nc2c1ncn2[C@@H]1O[C@H](CO)[C@@H](O)[C@@H]1O [Nelarabine],108000,103000,88500,119000,102000,107000,112000
"O=C(O)c1ccnc(C(=O)O)c1 [2,4-Pyridinedicarboxylic acid]",101000,100000,70200,104000,102000,83600,90600
Cc1nc(=O)c2cc(CN(C)c3ccc(C(=O)N[C@@H](CCC(=O)O)C(=O)O)s3)ccc2[nH]1 [Raltitrexed],60500,51500,48400,69300,84500,52200,28600
CC(=O)O[C@H]1C(=O)[C@@]2(C)[C@H]([C@H](OC(=O)c3ccccc3)[C@]3(O)C[C@H](OC(=O)[C@H](O)[C@@H](NC(=O)c4ccccc4)c4ccccc4)C(C)=C1C3(C)C)[C@]1(OC(C)=O)CO[C@@H]1C[C@@H]2O [7-epi-Taxol],17400,20600,37000,29400,20900,42400,8960
CC[C@@]1(O)C(=O)OCc2c1cc1n(c2=O)Cc2cc3cc(O)ccc3nc2-1 [10-Hydroxycamptothecin],3740,3700,59800,29300,31300,21900,7880
Nc1nc(OCc2ccccc2)c2nc[nH]c2n1 [O6-Benzylguanine],105000,108000,107000,122000,99200,114000,108000
O=C(CCCN1C(=O)c2cccc3cccc(c23)C1=O)NO [Nullscript],99300,102000,80200,97800,98900,99100,103000
CNC(=O)c1cc(Oc2ccc(NC(=O)Nc3ccc(Cl)c(C(F)(F)F)c3)c(F)c2)ccn1 [Regorafenib],96600,96800,90000,83400,92800,109000,96100
CCN(CC)CCNC(=O)c1c(C)[nH]c(/C=C2\C(=O)Nc3ccc(F)cc32)c1C [Sunitinib malate],89300,88200,94400,116000,100000,99400,99500
